# Some of the results follow. At the low end of the ranking the order means little.
# Target: SIX1-Q177R homeodomain (UniProt Q15475)
# Test: universal protein binding microarray
# Settings: Universal all-10-mer PBM (8x60K, AMADID 030236), 300 nM GST-tagged protein, Alexa Fluor 488 anti-GST; buffer, salt, pH and temperature not stated; high values mean tight binding; most listed sequences are background and not binding sites; double strand, one strand shown
row,Sequence,binding signal
1,AATTACCC,0.119 E-score
2,TGTAATAA,0.137 E-score
3,AGGGACTA,-0.185 E-score
4,CAGAAGGG,0.157 E-score
5,AAAATGCA,-0.137 E-score
6,AAGGGACA,0.267 E-score
7,GTCTAAAA,-0.121 E-score
8,ACATAGGG,0.012 E-score
9,ATTGTCAA,-0.00375 E-score
10,CGCCCATC,-0.0988 E-score
11,AAAGCCAA,-0.17 E-score
12,AAATCTTA,-0.0878 E-score
13,CCTGCGCA,-0.0375 E-score
14,AAAGTCGC,-0.148 E-score
15,ATGACAAA,-0.063 E-score
16,AAACTGGC,0.147 E-score
17,ACTCATCT,-0.161 E-score
18,GAATGCAA,-0.197 E-score
19,ATGAGGAC,-0.136 E-score
20,AATGGACC,-0.209 E-score
21,CCCGCAGC,-0.125 E-score
22,GATAGTAC,0.132 E-score
23,ATCGGGCG,0.113 E-score
24,CCCAACCA,0.167 E-score
25,GGGCACTA,-0.0665 E-score

row,Sequence,binding signal
1,AGCTTCAG,-0.0707 E-score
2,ACCATTGG,0.0146 E-score
3,AGCCCACC,-0.0322 E-score
4,AGAACAAG,-0.0118 E-score
5,ACCGAGCC,-0.0735 E-score
6,CACTGGGC,0.154 E-score
7,AAGTAGGT,-0.00332 E-score
8,GCACAAAC,0.0203 E-score
9,GACAAAAA,-0.238 E-score
10,CGAAAAAG,0.00292 E-score
11,GGCCGAGA,-0.117 E-score
12,GTCGAGCA,-0.0853 E-score
13,ACGCCGAT,0.152 E-score
14,ACGGGCAG,0.0358 E-score
15,AGTCCTGC,-0.106 E-score
16,AAGGATCT,-0.0101 E-score
17,CTACTTAA,-0.0474 E-score
18,GATTGGAA,-0.14 E-score
19,AGCTATCC,-0.156 E-score
20,CTATTTTC,0.0145 E-score
21,AGACAATC,-0.165 E-score
22,AATGAACA,0.0106 E-score
23,ACGCGCAA,0.00609 E-score
24,TGAGCGAA,0.0103 E-score
25,ATGAGGGC,-0.126 E-score

row,Sequence,binding signal
1,ACGGTTAT,-0.0586 E-score
2,GGGTAACA,0.281 E-score
3,AACAGGGG,0.17 E-score
4,AGAGCCCA,-0.3 E-score
5,ACGGGTAA,0.166 E-score
6,ACGGCCCA,-0.0327 E-score
7,ATGCCTCC,-0.217 E-score
8,CCCCGCAA,0.17 E-score
9,CTGGTACA,0.21 E-score
10,CTTTATCC,-0.0934 E-score
11,CGCAAAGC,-0.163 E-score
12,ACTGTGAG,0.111 E-score
13,AGTTGGTC,-0.254 E-score
14,GGACGTTA,0.132 E-score
15,CCGGGAGG,0.0853 E-score
16,AATCGGAC,-0.0408 E-score
17,CTGGCTAC,-0.119 E-score
18,ACACAGAT,0.167 E-score
19,AGAAAGAT,-0.305 E-score
20,CAGTGTAG,0.423 E-score
21,GCACACAC,0.275 E-score
22,ACATCATC,-0.133 E-score
23,ATTAGTCG,0.0382 E-score
24,AAATTTCG,-0.177 E-score
25,CAGGTGAG,-0.0478 E-score

row,Sequence,binding signal
1,AACTATAC,0.138 E-score
2,AATCACCA,-0.118 E-score
3,ACAGTACG,-0.0108 E-score
4,CACCATAC,0.349 E-score
5,AGGTTATC,-0.151 E-score
6,AAGGTTTC,-0.0918 E-score
7,ATGCCGGA,0.141 E-score
8,ACCCACTC,0.247 E-score
9,AGTACTTG,-0.0862 E-score
10,CAGGCGGC,-0.0835 E-score
11,GCTTCAGA,-0.206 E-score
12,GGGAAGAA,-0.0636 E-score
13,TAGGATGA,-0.0891 E-score
14,AACTGGGC,-0.221 E-score
15,CATCCATG,0.0752 E-score
16,GAACAAAC,-0.0718 E-score
17,ACTCGGGC,0.161 E-score
18,CACTAGCG,0.188 E-score
19,GACCTTCC,-0.0691 E-score
20,AAGAACCC,0.115 E-score
21,CATGATGC,-0.248 E-score
22,CCTTCATC,-0.158 E-score
23,CGAGAAAG,-0.0483 E-score
24,ATAAGGAT,0.131 E-score
25,CACTCTTC,0.0747 E-score

row,Sequence,binding signal
1,GTCTTTGA,-0.189 E-score
2,GTAATCAC,0.114 E-score
3,AATAAACC,0.0937 E-score
4,AAAGTTAT,-0.074 E-score
5,AAGTTGCC,-0.268 E-score
6,GCTGTTGA,-0.143 E-score
7,GCGACCGC,-0.0652 E-score
8,TACTATCA,0.00575 E-score
9,CCCCGGCG,0.139 E-score
10,AGATATCA,-0.189 E-score
11,AGTCACAT,-0.0439 E-score
12,ACGTCGTG,0.0879 E-score
13,CACCGGTA,0.345 E-score
14,CCCGTCAC,0.0171 E-score
15,AGGCTGAC,-0.112 E-score
16,GCCCTTAC,-0.248 E-score
17,AGTGACAT,-0.101 E-score
18,AGCCCCGC,0.00775 E-score
19,TACTAAAA,-0.0238 E-score
20,AGCGAGAA,-0.139 E-score
21,CATCTTCA,0.051 E-score
22,CCATCGAA,-0.0938 E-score
23,CTGGTGAC,0.124 E-score
24,AGCTGTGC,-0.122 E-score
25,TGCAATAA,-0.0636 E-score

row,Sequence,binding signal
1,ACCCGACT,0.207 E-score
2,GTGGGCAA,-0.0987 E-score
3,CAACAGAA,-0.251 E-score
4,CGCTATCC,0.0734 E-score
5,ACGGAACT,-0.0864 E-score
6,CACAATAG,0.0436 E-score
7,ACATCTCA,-0.087 E-score
8,TATTCGCA,-0.118 E-score
9,CATGCACC,0.165 E-score
10,AAGTAGCT,-0.197 E-score
11,CTACATAA,-0.0943 E-score
12,GTAACAGA,0.16 E-score
13,CGGACACG,0.373 E-score
14,CAGAGTGG,-0.04 E-score
15,CACGCCCC,0.29 E-score
16,AGACGGTG,0.23 E-score
17,AATACAGA,-0.17 E-score
18,AGCGGAAG,-0.163 E-score
19,CGGCCGTC,-0.156 E-score
20,TCTAGAGA,-0.0337 E-score
21,ATATCTAC,-0.0248 E-score
22,GAGTTATA,0.0922 E-score
23,AGCAACAG,-0.218 E-score
24,AGAGCACG,0.136 E-score
25,ACTGTATA,0.0247 E-score

row,Sequence,binding signal
1,ACGTCACA,0.0995 E-score
2,CGACAACA,0.245 E-score
3,AGAGTAAG,0.00123 E-score
4,AACATACA,0.082 E-score
5,ACAACAAC,0.0423 E-score
6,GAAAGGCA,-0.218 E-score
7,TAAGAGTA,0.0672 E-score
8,CCTCTAAG,0.0716 E-score
9,ACTCTTGC,-0.00673 E-score
10,ACTTTAAG,-0.148 E-score
11,CAGCGCAC,0.0268 E-score
12,GATTTTCA,-0.179 E-score
13,AAGAGTGT,0.363 E-score
14,ACAGCTCA,-0.268 E-score
15,ATTCCTAG,-0.108 E-score
16,ATTGAGTA,0.0331 E-score
17,CAGGAAAG,-0.121 E-score
18,ACTCAAGT,-0.0138 E-score
19,ACCGATTG,0.0855 E-score
20,GTCCGTCA,-0.104 E-score
21,CTGGCAGA,-0.0375 E-score
22,CCAGAAGG,0.0371 E-score
